{
  "source": "the supplement of paper PMC11417369",
  "note": "± gives the standard deviation of the averaged measurements. Some of the results follow.",
  "data": [
    {"test_system": "PfAP2-G AP2 domain (GST-tagged)", "assay": "gcPBM binding intensity (ln(normalized median fluorescence intensity)); higher = stronger DNA binding", "summary_of_the_method": "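Binding intensity is defined as the maximum Masliner-normalised natural-log median intensity across replicate spots for either probe orientation. It was measured on an Agilent 4 × 180k array of primer-extended double-stranded 36-bp intergenic genomic probes and negative controls, to which GST-tagged P. falciparum DNA-binding domains made in E. coli were applied for 1 h in 1× PBS with 1% milk, 0.2 mg/ml BSA, 0.5% salmon testes DNA and 0.03% Triton X-100. Detection was by Alexa488 anti-GST antibody and scanning at 488 nm.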", "values": [
      {"sequence": "ATTTTAGATGAAAAAGCACACAACATATATATATAT [CACACA_site2295]", "gcPBM binding intensity (ln)": "10.2 ± 0.43"},
      {"sequence": "CTCTTATGCTAGGAAGTGCAATAGTATGGGTACCAC", "gcPBM binding intensity (ln)": "11.5 ± 0.95"},
      {"sequence": "TCATTTTATTTTTTCACACACACATATATATATATA [CACACA_site3333]", "gcPBM binding intensity (ln)": "10.2 ± 0.28"},
      {"sequence": "TAATATATATAAACATGTACAAATCAAAAACAAAAG [XGTACX_site4076]", "gcPBM binding intensity (ln)": "11 ± 0.41"},
      {"sequence": "ACGTTGAAGAAATACACATGCATATTCTATATATAT [TGCATGCA_site76]", "gcPBM binding intensity (ln)": "9.83 ± 0.057"},
      {"sequence": "TATATTTTTTAAAAAGCATGCAAAAAATAATGATCA [TGCATGCA_site48]", "gcPBM binding intensity (ln)": "9.89 ± 0.33"},
      {"sequence": "GTATAATATGAACACACACACACACGCAAAAAAAAA [CACACA_site7036]", "gcPBM binding intensity (ln)": "10.5 ± 0.39"},
      {"sequence": "TTAACTCAAGAGTGTACACATATATATATATATATA [CACACA_site4334]", "gcPBM binding intensity (ln)": "11.6 ± 1"},
      {"sequence": "AATACCCATTTTAGTACACACTTAAAAAATTATTTT [CACACA_site5611]", "gcPBM binding intensity (ln)": "11.6 ± 1.1"},
      {"sequence": "TTGCCCATTTCATTAACACACAAATGTTTATATTCT [CACACA_site4569]", "gcPBM binding intensity (ln)": "10.17 ± 0.071"},
      {"sequence": "TGTAAAACTGAAAAGGGTACATATAAATATATATAT [XGTACX_site69]", "gcPBM binding intensity (ln)": "11.2 ± 0.79"},
      {"sequence": "ATTTATTTTTATATAACACACAAAGTATAATATAAC [CACACA_site3582]", "gcPBM binding intensity (ln)": "10 ± 0.21"},
      {"sequence": "ATATATTTATATTTATGTACATATCTTTATTTACGT [XGTACX_site6800]", "gcPBM binding intensity (ln)": "11.2 ± 0.55"},
      {"sequence": "ATATATATATCGATCTGTACATATATTTATAGACAT [XGTACX_site4236]", "gcPBM binding intensity (ln)": "11.2 ± 0.53"},
      {"sequence": "TGCTTCCTTAGGAATGTACACACATATATAATATGT [CACACA_site8048]", "gcPBM binding intensity (ln)": "11.2 ± 0.49"},
      {"sequence": "ATTAGTAAGAATCATTGTACATTATAATATGTGGTA [XGTACX_site1341]", "gcPBM binding intensity (ln)": "10.7 ± 0.5"},
      {"sequence": "TTTTTAAAAAAGTAAAGTACAAAAAAAAGGAATATC [XGTACX_site588]", "gcPBM binding intensity (ln)": "11.3 ± 0.53"},
      {"sequence": "AAAGAAATACAATGATGTACATTTAAAAAAAATTAA [XGTACX_site4324]", "gcPBM binding intensity (ln)": "11 ± 0.67"},
      {"sequence": "ACAAGAAAATATATTTGTACATATATAATTTTATTT [XGTACX_site548]", "gcPBM binding intensity (ln)": "10.8 ± 0.47"},
      {"sequence": "TTGACCTTAAGAAGGTTGCACTAATCATTCAAAGTT", "gcPBM binding intensity (ln)": "10.1 ± 0.17"},
      {"sequence": "CTTTATTATAAGATTACACACATGTGTTATAATTTA [CACACA_site3169]", "gcPBM binding intensity (ln)": "9.86 ± 0.042"},
      {"sequence": "CCATTTATTATTTGGGGTACATTTAATTAATATTTT [XGTACX_site5940]", "gcPBM binding intensity (ln)": "11.5 ± 1"},
      {"sequence": "TAATTTAGTATCTTTACATGCGGGCATTATGTCATA [TGCATGCA_site167]", "gcPBM binding intensity (ln)": "10.105 ± 0.007"},
      {"sequence": "ATTTAAGGGGTGTATGCACACGACTATTCCGTATGA [CACACA_site4738]", "gcPBM binding intensity (ln)": "10.23 ± 0.092"},
      {"sequence": "AATATTTTAAGGCACACACACAAAAAAAAAAAAAAA [CACACA_site2890]", "gcPBM binding intensity (ln)": "10.2 ± 0.49"},
      {"sequence": "ATAGGCACTTTTTGCACACGTATGAATAACAAAATA [CACACA_site5069]", "gcPBM binding intensity (ln)": "10.6 ± 0.25"},
      {"sequence": "TGAAAATTTTAATGAGGAAATAAAATAAATATAATA [GTGCAC_negctrl_site159]", "gcPBM binding intensity (ln)": "9.86 ± 0.16"},
      {"sequence": "TTTATTAATAGACACACACACACACGCAAAATAAAA [CACACA_site6255]", "gcPBM binding intensity (ln)": "10.5 ± 0.45"},
      {"sequence": "CCAAAGGGGGTATACTGTACATATAGTGGTTATATA [XGTACX_site1515]", "gcPBM binding intensity (ln)": "11.3 ± 0.73"},
      {"sequence": "AATGAAAAATGTATCGTTAAAGGGTATCTTAAGGAT [XGTACX_negctrl_site222]", "gcPBM binding intensity (ln)": "10.1 ± 0.15"},
      {"sequence": "CCAAAGAAATATAATACACACAAGAATATATTGGAT [CACACA_site6018]", "gcPBM binding intensity (ln)": "9.935 ± 0.049"},
      {"sequence": "AAGTATTACAACCACACACACACCTATATATTATAT [CACACA_site4158]", "gcPBM binding intensity (ln)": "10.09 ± 0.099"},
      {"sequence": "ACTTGTTTTCAATGTAAAATACAATTTTCATTTATT [CACACA_negctrl_site435]", "gcPBM binding intensity (ln)": "9.86 ± 0.11"},
      {"sequence": "AAAGGAAATTAAAATTGATTACATATATAAAAAAAC [XGTACX_negctrl_site196]", "gcPBM binding intensity (ln)": "9.93 ± 0.014"},
      {"sequence": "AAAAAAAAAAGACACACACACAAATACAAATACATA [CACACA_site6334]", "gcPBM binding intensity (ln)": "10.1 ± 0.13"},
      {"sequence": "TTTTAAACAAAAAATTGTACAATTAGTGTATAATCC [XGTACX_site778]", "gcPBM binding intensity (ln)": "11 ± 0.69"},
      {"sequence": "AATTTAATATAATGCACACATAAAAAAAAAAAAAAA [CACACA_site123]", "gcPBM binding intensity (ln)": "9.92 ± 0.52"},
      {"sequence": "AACACAAATAAGTATTTGGATTATATTACATTTATA [CACACA_negctrl_site465]", "gcPBM binding intensity (ln)": "9.71 ± 0.22"},
      {"sequence": "ATAAAAATAAATAAATGTACATATATATATATATAT [XGTACX_site1277]", "gcPBM binding intensity (ln)": "11.1 ± 0.58"},
      {"sequence": "TAAATAGGAAAACCTATACACACTTTAAAAAAAATA [CACACA_site1621]", "gcPBM binding intensity (ln)": "9.845 ± 0.064"},
      {"sequence": "TAAATTAAAAAAAAAAACAAAAAAAAAGCAACAAAA [CACACA_negctrl_site1318]", "gcPBM binding intensity (ln)": "9.84 ± 0.12"},
      {"sequence": "ATTTATTTCAATAAACTTCTTTTCTTTAACAATTAC [CACACA_negctrl_site1222]", "gcPBM binding intensity (ln)": "9.845 ± 0.035"},
      {"sequence": "CTGTAAAATGTGATGGTGCATATTAATTTAGTTGTA", "gcPBM binding intensity (ln)": "10.07 ± 0.042"},
      {"sequence": "AAATTAAAATATATATGTACATATATATATATATAT [XGTACX_site7844]", "gcPBM binding intensity (ln)": "11.2 ± 0.54"},
      {"sequence": "GAGCTTTGGATGAAAGCATGCGATGAATGGATAAAA [TGCATGCA_site786]", "gcPBM binding intensity (ln)": "9.94 ± 0.028"}
    ]}
  ]
}
